Hit rate of the full screen: of about 150,000 compounds, about 540 (0.36%) showed an effect of 50% or more. The list shows a part of the results.

As a reminder, the % Inhibition is the drop in the measured response relative to a control, in per cent.

The test system of the test is Plasmodium falciparum. Kind of test: Primary screen in NF54 nanoGlo assay, in single point, at 2uM, 72h; a lower Z score goes with more inhibition. It is filed as functional, Erythrocyte. As to conditions: timepoint 72 hour.
On to `CCc1nnc(C(=O)Nc2ccc(C(=O)N3CCOCC3)cc2)s1`, for which the “% Inhibition” value was -10% and the Z score turned out to be 1.12.

As for `CCOC1CC(NC(=O)c2cnc(-c3cnn(C)c3)s2)C12CCCC2` (centres undefined), the “% Inhibition” value is on record as -5% and the Z score turned out to be 0.93.

In the case of `COCCn1c(C)cc(=O)c(C(=O)NCCCn2ccnc2)c1CC1CCCC1`, the “% Inhibition” value is -6% and the Z score is given as 0.77.

Regarding `CC[C@H]1CN(c2ncc(C(C)(C)C(=O)O)c(N3CCOCC3)n2)CCN1`, the “% Inhibition” value is 4% and the Z score was -0.49.

`O=C(Cn1[nH]c2ccccc2c1=O)N1CCC[C@H](CO)C1`: the “% Inhibition” value is reported as -2% and the Z score was found to be 0.34.

For `COc1cc(-c2cn(Cc3cc(C(C)(C)C)n[nH]3)nn2)cc2c1OCO2`, the “% Inhibition” value is reported as -4% and the Z score was 0.67.

As for `Cc1cnc(OC2CCN(Cc3cnc4ccnn4c3)CC2)nc1`, the “% Inhibition” value is listed as -6% and the Z score is on record as 0.95.

Take `Cc1ccc(-c2cn3c(O)cc(C)nc3n2)cc1`: the “% Inhibition” value amounted to 4% and the Z score was -0.44.

Turning to `Cc1cc(C)n2ncc(CN3CCc4[nH]nc(C(C)C)c4C3)c2n1`, the “% Inhibition” value is reported as -4% and the Z score is 0.8.

Consider `O=C1O[C@H](C(=O)Nc2ccc(-n3cncn3)nc2)Cc2ccccc21`, for which the “% Inhibition” value is recorded as -15% and the Z score turned out to be 2.77.

On to `COc1ccc(Cl)cc1S(=O)(=O)N(CCC(=O)N1CCNCC1)Cc1ccc(F)cc1`, for which the “% Inhibition” value is listed as 3% and the Z score is on record as -0.57.

As to `Cc1cc(-c2nc(-c3ccc(N4CCCCC4)cc3)no2)ccn1`, the “% Inhibition” value came to 10% and the Z score is -1.32.

With `CCO[C@@]1(C)C[C@H]1NC(=O)N[C@H]1C[C@H]1C(F)F`, the “% Inhibition” value is given as -9% and the Z score is reported as 1.68.

Regarding `CC(=O)N1CCC[C@H](c2[nH]ccc2C(=O)NCc2cc(C)nn2C)C1`, the “% Inhibition” value was -21% and the Z score is given as 2.42.

In the case of `CC(=O)Nc1nccc2c1[nH]c(=O)n2C`, the “% Inhibition” value is -15% and the Z score is given as 1.92.

For the compound `Cc1ccc(CN(C)C)cc1NC(=O)CCCc1nccs1`, the “% Inhibition” value is listed as -11% and the Z score was 1.44.

For `COC1CCN(C(=O)N2CCO[C@@H](COCC3CC3)C2)CC1`, the “% Inhibition” value came out at 15% and the Z score is listed as -1.7.

As to `CCc1nccc(CN2CCC(C)(C#N)CC2)n1`, the “% Inhibition” value was determined as 6% and the Z score is listed as -1.2.

Consider `COc1ccc2c(c1)[C@H](C(=O)NCCN1CC=C(C)CC1)CCC2`, for which the “% Inhibition” value is reported as 2% and the Z score is reported as -0.32.

Consider `C[C@@H](CC#N)N(C)C(=O)C(=O)Nc1cc(Br)ccc1F`, for which the “% Inhibition” value was -6% and the Z score worked out at 0.78.

Take `Cc1nn(C(C)C)c(C)c1CN(C)C(=O)c1ccc([C@H]2CCCNC2)cc1`: the “% Inhibition” value is listed as -9% and the Z score came out at 1.22.

`CCN1CCN(c2c(CN(CC(C)C)C(=O)C3CCCC3)c(C)nn2-c2cccc(F)c2)CC1`: the “% Inhibition” value came to 5% and the Z score is given as -0.6.

`C[C@@H](Cc1cccc(Cl)c1)C(=O)NCCC(=O)O`: the “% Inhibition” value was 3% and the Z score is reported as -0.63.

As to `C1CNC[C@@H](Oc2nc(C3CC3)nc3c2CCOCC3)C1`, the “% Inhibition” value was -7% and the Z score stood at 1.15.

Turning to `CCOc1nnc(CN2CCC[C@H](c3cc(C(N)=O)[nH]n3)C2)s1`, the “% Inhibition” value is -11% and the Z score was determined as 1.63.

As for `Cc1cc(C)c(CN2CCO[C@@H](CCN(C)C)C2)c(-n2cccn2)c1`, the “% Inhibition” value is recorded as -9% and the Z score is reported as 1.31.

For the compound `O=C(Nc1cccc2ccccc12)[C@H]1CCCN(c2c(-c3ccccc3)c3cc(Cl)ccc3[nH]c2=O)C1`, the “% Inhibition” value is -33% and the Z score is recorded as 3.9.

`Cc1n[nH]c(C)c1Cn1cnc(-c2ccccc2)c1-c1ccco1`: the “% Inhibition” value is -23% and the Z score worked out at 4.39.

Turning to `Cn1cc(C(=O)N2CCN(Cc3ccoc3)C[C@H](O)C2)cn1`, the “% Inhibition” value is recorded as -7% and the Z score was 0.72.

As for `Cc1ccc(-n2c(=O)c3sccc3n(CC(=O)NCCc3ccc(Cl)cc3)c2=O)c(C)c1`, the “% Inhibition” value is recorded as -2% and the Z score was 0.38.

As to `Cc1nc([C@H](C)NC(=O)c2cccn(C)c2=O)cs1`, the “% Inhibition” value amounted to 2% and the Z score is on record as -0.24.

For the compound `C[C@H](NCc1cnc2n1CCCC2)c1ccc(-n2cnnn2)cc1`, the “% Inhibition” value is given as 5% and the Z score is -0.87.

Regarding `CCC(NC(=O)c1c[nH]c2cc(C)nn2c1=O)[C@H]1C[C@@H](O)C1` (some centres undefined), the “% Inhibition” value was -8% and the Z score worked out at 0.79.

As to `COc1ccc(-c2ccc(N3CCN(C(=O)CN(C(C)=O)[C@@H](C)c4ccccc4)CC3)nn2)cc1OC`, the “% Inhibition” value was -20% and the Z score is given as 1.74.

Regarding `C=C(C)c1nc(C#N)c(NCc2ccc3c(c2)OCO3)o1`, the “% Inhibition” value is -18% and the Z score was 2.74.

As for `COc1cc(-n2cnnn2)ccc1NC(=O)CCc1ccnn1C`, the “% Inhibition” value is on record as -24% and the Z score turned out to be 2.43.

Take `COc1ccc(-c2cnc3nnc(C)n3c2)cc1F`: the “% Inhibition” value is on record as -5% and the Z score worked out at 0.86.

As to `CCO[C@H]1CN(CC(=O)Nc2cnn(C)c2)C[C@@H]1O`, the “% Inhibition” value is reported as 6% and the Z score was -0.97.

Consider `Cc1ccc(-c2ccc(C(=O)NC3(C(N)=O)CCCCCC3)cc2)nc1`, for which the “% Inhibition” value came out at 3% and the Z score is reported as -0.47.

Regarding `CC(C)CC1NC2(C(=O)N(Cc3ccc(F)cc3)c3ccccc32)C2C(=O)N(c3ccccc3)C(=O)C12` (centres undefined), the “% Inhibition” value is on record as 36% and the Z score was -4.01.

Turning to `CCOCCC(=O)N1CC[C@H](C(C)(C)O)C1`, the “% Inhibition” value was -3% and the Z score came out at 0.41.

Turning to `COc1ccccc1Cc1nc(CN2CCOCC2)n(C(C)(C)C)n1`, the “% Inhibition” value is -7% and the Z score amounted to 0.93.

The record behind these values is ChEMBL document CHEMBL4888484, “Replenishing the malaria drug discovery pipeline: Screening and hit evaluation of the MMV Hit Generation Library 1 (HGL1) against asexual blood stage Plasmodium falciparum ,using a nano luciferase reporter read-out” (2022).
